{
  "source": "PubChem BioAssay AID1347165",
  "about": "(National Center for Advancing Translational Sciences (NCATS), 2019)",
  "note": "Among all 220,000 compounds or so, about 5,700 (2.6%) were called active. Inconclusive means that the source gave no clear call. Such entries were picked first, then a sample of the others. Calls follow the shape of the dose curve; as a rule, active = well fitted inhibition curve with a large enough effect; inconclusive = small, poorly fitted or top-dose-only effect; inactive = no such curve, though single readings can be large or run the other way. Potencies of inconclusive entries are doubtful fits and often do not repeat. Potency is read from the fitted curve at half-maximal effect; tags tell the direction and shape of the fitted curve.",
  "data": [
    {"target": "Lysine-specific demethylase 5B (Homo sapiens) (UniProt Q9UGL1)", "sequence (Q9UGL1 whole entry, looked up)": "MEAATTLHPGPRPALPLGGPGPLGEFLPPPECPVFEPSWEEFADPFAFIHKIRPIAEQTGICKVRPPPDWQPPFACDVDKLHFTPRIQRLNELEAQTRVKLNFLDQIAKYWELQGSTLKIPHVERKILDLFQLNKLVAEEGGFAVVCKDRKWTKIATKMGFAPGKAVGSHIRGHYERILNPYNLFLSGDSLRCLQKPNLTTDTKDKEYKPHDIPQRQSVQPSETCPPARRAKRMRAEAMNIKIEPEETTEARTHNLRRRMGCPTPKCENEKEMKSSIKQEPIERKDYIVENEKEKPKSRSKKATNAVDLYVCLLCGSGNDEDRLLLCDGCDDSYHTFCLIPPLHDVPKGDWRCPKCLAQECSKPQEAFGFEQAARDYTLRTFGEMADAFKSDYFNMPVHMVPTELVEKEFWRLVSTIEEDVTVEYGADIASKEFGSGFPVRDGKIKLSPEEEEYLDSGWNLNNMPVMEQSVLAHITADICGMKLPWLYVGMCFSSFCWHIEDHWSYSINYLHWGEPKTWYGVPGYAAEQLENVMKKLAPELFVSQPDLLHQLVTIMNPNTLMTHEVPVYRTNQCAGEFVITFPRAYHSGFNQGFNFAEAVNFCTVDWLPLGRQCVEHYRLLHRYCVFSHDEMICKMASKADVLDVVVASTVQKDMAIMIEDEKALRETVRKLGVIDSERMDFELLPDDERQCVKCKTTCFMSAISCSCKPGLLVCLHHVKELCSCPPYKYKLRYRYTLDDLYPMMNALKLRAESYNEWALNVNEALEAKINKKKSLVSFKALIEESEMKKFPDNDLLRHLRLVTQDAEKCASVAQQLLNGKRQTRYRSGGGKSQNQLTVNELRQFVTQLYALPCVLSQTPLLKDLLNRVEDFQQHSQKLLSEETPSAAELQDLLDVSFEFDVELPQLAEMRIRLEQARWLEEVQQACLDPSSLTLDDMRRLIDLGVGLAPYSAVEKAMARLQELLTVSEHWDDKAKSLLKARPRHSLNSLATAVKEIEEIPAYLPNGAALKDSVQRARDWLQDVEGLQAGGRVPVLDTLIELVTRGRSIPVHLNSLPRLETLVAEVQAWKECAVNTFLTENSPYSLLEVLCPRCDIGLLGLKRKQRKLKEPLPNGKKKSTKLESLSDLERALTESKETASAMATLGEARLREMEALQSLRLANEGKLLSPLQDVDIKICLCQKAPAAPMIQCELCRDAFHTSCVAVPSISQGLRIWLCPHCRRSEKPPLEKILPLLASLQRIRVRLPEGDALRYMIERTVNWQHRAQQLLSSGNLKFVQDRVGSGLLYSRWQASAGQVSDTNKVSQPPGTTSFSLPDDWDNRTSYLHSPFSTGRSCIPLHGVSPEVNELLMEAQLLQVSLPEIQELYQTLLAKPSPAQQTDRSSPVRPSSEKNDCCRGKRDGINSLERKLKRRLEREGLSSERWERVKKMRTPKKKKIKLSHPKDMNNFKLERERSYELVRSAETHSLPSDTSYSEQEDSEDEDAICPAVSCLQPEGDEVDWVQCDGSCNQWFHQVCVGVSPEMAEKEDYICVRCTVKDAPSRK", "assay": "Primary screen for KDM5B Histone Demethylases FDH-coupled qHTS; also: nearly all actives have a fitted effect of over 70% in size; as to activity change, negative = inhibition: 0% is about no effect", "conditions": "FDH-coupled NADH fluorescence (FDH is formaldehyde dehydrogenase); activity change, negative = inhibition: at 57.7 µM (top of the series) unless noted", "summary_of_the_method": "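Here, H3K4me3 peptide (12.5 µM in substrate mix) is demethylated by KDM5BΔAP, 200 nM final, after 10 min compound exposure. Formaldehyde product is coupled through FDH (0.25 U/mL in mix) to NADH fluorescence; 30-min ΔRFU feeds dose-response curves.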", "values": [
      {"compound": "COC(=O)c1ccc(-c2ccc(CNCc3ccco3)o2)cc1", "Potency": "inconclusive: 28.2 µM [inhibitor, partial curve, poor fit]"},
      {"compound": "C=CCNC(=S)Nc1ccccc1F", "activity change, negative = inhibition": "inactive: 18.7%"},
      {"compound": "Cc1cc(C)cc(NC(=O)CSc2nc3ncccc3[nH]2)c1", "activity change, negative = inhibition": "inactive: -7.38%"},
      {"compound": "Fc1ccc(Nc2nc3nonc3nc2N2CCC(Cc3ccccc3)CC2)cc1", "activity change, negative = inhibition": "inactive: -2.74%"},
      {"compound": "Cc1ccc(NC(=O)C(Cc2ccccc2)NS(=O)(=O)c2ccc3c(c2)CCC(=O)N3)cc1", "note": "(centres undefined)", "Potency": "inconclusive: 28.2 µM [inhibitor, partial curve, poor fit]"},
      {"compound": "COCCNC(=O)c1noc(-c2ccc[nH]c2=O)n1", "Potency": "active: 28.2 µM"},
      {"compound": "CN(C)c1oc(-c2ccc(COc3ccccc3)o2)nc1C#N", "Potency": "inconclusive: 31.6 µM [inhibitor, partial curve, poor fit]"},
      {"compound": "COc1cc(NC(=O)Cn2ccn(-c3cc(C)cc(C)c3)c(=O)c2=O)cc(OC)c1", "Potency": "inconclusive: 2 µM [inhibitor, full curve, poor fit]"},
      {"compound": "CC(C)(C)NC(=O)Cc1csc(-c2cccs2)n1", "Potency": "inconclusive: 25.1 µM [inhibitor, single point]"},
      {"compound": "Cc1cc(=O)n(CC(=O)Nc2cccc(Cl)c2)c(N2CCc3ccccc3C2)n1", "Potency": "active: 12.6 µM"},
      {"compound": "Cc1cnc(C(=O)N[C@@H]2CN(Cc3ccccc3)C[C@H]2CO)cn1", "Potency": "inconclusive: 12.6 µM [inhibitor, partial curve]"},
      {"compound": "CC(C)(C)c1ccc(Oc2nc3ccccn3c(=O)c2/C=C(\\C#N)c2nc3ccccc3s2)cc1", "Potency": "inconclusive: 25.1 µM [inhibitor, partial curve, poor fit]"},
      {"compound": "CC(=O)Nc1ccccc1NC(=O)CCC1CCCC1", "activity change, negative = inhibition": "inactive: 9.56%"},
      {"compound": "COc1cccc(CC(=O)NC2CCN(c3cc(-c4ccc(Cl)cc4)[nH]n3)CC2)c1", "Potency": "inconclusive: 20 µM [inhibitor, partial curve]"},
      {"compound": "COc1ccc2c(c1)CCc1sc(NC(=O)c3ccc(Br)cc3)nc1-2", "Potency": "inconclusive: 31.6 µM [inhibitor, partial curve, poor fit]"},
      {"compound": "Cc1ccc(S(=O)(=O)c2c(Nc3cc(F)ccc3F)sc(C(=O)c3ccc(F)cc3)c2N)cc1", "Potency": "inconclusive: 7.08 µM [inhibitor, partial curve, poor fit]"},
      {"compound": "CC1(CCCCc2ccccc2)COc2ccc(C(=O)NCCc3cnc[nH]3)cc2N1", "note": "(centres undefined)", "Potency": "active: 31.6 µM"},
      {"compound": "O=C(NC1CCN(C(=O)c2cc(-c3ccccc3)nc3ccccc23)CC1)c1ccccc1", "activity change, negative = inhibition": "inactive: -5.86%"},
      {"compound": "O=C(OCC(=O)N1CCCC1=O)c1cc(-c2cccs2)nc2ccccc12", "Potency": "inconclusive: 25.1 µM [inhibitor, partial curve, poor fit]"},
      {"compound": "COc1ccccc1NS(=O)(=O)c1cc(NC(=O)C(C)NC(N)=O)ccc1N1CCCC1", "note": "(centres undefined)", "Potency": "inconclusive: 39.8 µM [inhibitor, single point]"},
      {"compound": "O=C(/C=C/c1ccco1)NCCc1c[nH]c2ccccc12", "activity change, negative = inhibition": "inactive: -15.6%"},
      {"compound": "Cn1nccc1C(=O)N1CCC(Cc2nc(C3CCOCC3)no2)CC1", "Potency": "inconclusive: 31.6 µM [inhibitor, partial curve, poor fit]"},
      {"compound": "CCN1CCN(c2ccc(NC(=O)c3cccc(S(=O)(=O)NCc4cccs4)c3)cc2)CC1", "activity change, negative = inhibition": "inactive: 7.59%"},
      {"compound": "COCCNc1nc2c([S+](=O)([O-])c3ccc(Br)cc3)nnn2c2ccccc12", "Potency": "inconclusive: 4.47 µM [inhibitor, single point]"},
      {"compound": "CCCOc1ccc(-c2nc(SC)[nH]c(=O)c2C#N)cc1OC", "Potency": "inconclusive: 39.8 µM [inhibitor, single point]"},
      {"compound": "O=C(Nc1ccccc1C(=O)N1CCOCC1)c1cccc(Br)c1", "activity change, negative = inhibition": "inactive: 2.96%"},
      {"compound": "Cc1ccc(Nc2c(-c3ccc(O)cc3)nc3cccc(C)n23)cc1", "Potency": "inconclusive: 31.6 µM [inhibitor, partial curve, poor fit]"},
      {"compound": "Cc1cc(OCC(=O)NC(C)C)c2c(C)cc(=O)oc2c1", "Potency": "inconclusive: 10 µM [inhibitor, partial curve, poor fit]"},
      {"compound": "Cc1nc(-c2ccc(Cl)cc2)sc1CCNC(=O)c1cccs1", "Potency": "inconclusive: 31.6 µM [inhibitor, partial curve, poor fit]"},
      {"compound": "CC(=O)c1cccc(OCC(O)CNCC2CCCCC2)c1", "note": "(centres undefined)", "Potency": "inconclusive: 14.1 µM [inhibitor, single point]"},
      {"compound": "COc1ccc2c(C)c(CCC(=O)N3CCN(C)CC3)c(=O)oc2c1", "Potency": "inconclusive: 39.8 µM [inhibitor, partial curve, poor fit]"},
      {"compound": "COc1ccc(Cl)cc1C(=O)N1CCCC(c2[nH]ccc2C(N)=O)C1", "note": "(centres undefined)", "activity change, negative = inhibition": "inactive: -20.4%"},
      {"compound": "Cc1ccc(C(=O)Nc2ccc(OCc3cc(=O)n4c(C)csc4n3)cc2)cc1", "Potency": "inconclusive: 25.1 µM [inhibitor, partial curve, poor fit]"},
      {"compound": "CC(=O)N1CCc2cc(NC(=O)CCc3ncc(-c4ccccc4F)o3)ccc21", "activity change, negative = inhibition": "inactive: 13.7%"},
      {"compound": "CCCc1cc(=O)oc2cc(OCc3ccc(C(=O)O)cc3)ccc12", "Potency": "inconclusive: 28.2 µM [inhibitor, partial curve, poor fit]"},
      {"compound": "O=C(O)Cc1ccc(NC(=O)Nc2cccc3ccccc23)cc1", "activity change, negative = inhibition": "inactive: 19.1%"},
      {"compound": "O=C(c1cc2c(s1)-c1ccccc1OC2)N1CCN(c2ccccc2)CC1", "Potency": "inconclusive: 22.4 µM [inhibitor, partial curve, poor fit]"},
      {"compound": "Cc1cc2cc(N)ccc2[nH]1", "Potency": "inconclusive: 35.5 µM [inhibitor, partial curve, poor fit]"},
      {"compound": "CS(=O)(=O)c1ccc(-c2nc(C(=O)N3CCCC3)n3ccccc23)cc1", "activity change, negative = inhibition": "inactive: 5180% [at 115 µM]"},
      {"compound": "Oc1ccccc1-c1cnc2n[nH]c(-c3ccc4c(c3)OCO4)c2n1", "activity change, negative = inhibition": "inactive: 4.99% [at 86.2 µM]"},
      {"compound": "Cc1ccccc1CNC(=O)c1ccc2c(c1)CCCC2", "activity change, negative = inhibition": "inactive: 19%"},
      {"compound": "Cc1ccc(NC(=O)N2CCC(c3ccccc3)C2)cc1C", "note": "(centres undefined)", "Potency": "inconclusive: 1.78 µM [inhibitor, partial curve, poor fit]"},
      {"compound": "CC(C)S(=O)(=O)N1CCC2(CC1)CC1C(=O)NCCN1C2", "note": "(centres undefined)", "Potency": "inconclusive: 11.2 µM [inhibitor, partial curve]"},
      {"compound": "COC(=O)c1ccccc1NC(=O)N1CCC[C@@H](O)[C@H](NC(=O)c2ccc(OCc3c(C)noc3C)cc2)C1", "Potency": "active: 22.4 µM"},
      {"compound": "CN(CCO)c1nc(-c2cccnc2)nc2ccccc12", "activity change, negative = inhibition": "inactive: 0.39%"},
      {"compound": "O=C1NCCOCCN(S(=O)(=O)c2cccc(F)c2)[C@H]2CCC[C@@H]12", "activity change, negative = inhibition": "inactive: 20%"},
      {"compound": "CCc1nnc(NC(=O)C(=O)c2cc(C)n(-c3ccccc3)c2C)s1", "Potency": "inconclusive: 17.8 µM [inhibitor, partial curve, poor fit]"},
      {"compound": "CN(C)C(=O)CNC(=O)c1cc2sccc2n1Cc1ccccc1Cl", "activity change, negative = inhibition": "inactive: -2.28%"},
      {"compound": "CC(C)N(Cc1ccccc1)C(=O)Cn1ncc2c([nH]c3ccccc32)c1=O", "Potency": "inconclusive: 25.1 µM [inhibitor, partial curve, poor fit]"},
      {"compound": "Cc1noc(C)c1-c1cc(-c2ccc(N3CCOCC3)nc2)cn2cncc12", "Potency": "active: 31.6 µM"},
      {"compound": "COc1cc(C2SCCS2)ccc1OC(=O)COc1ccccc1C", "activity change, negative = inhibition": "inactive: -5.2%"},
      {"compound": "COc1cc2c(cc1OC)-c1c(c(C(=O)NCCN3CCOCC3)nn1-c1ccccc1F)C2", "Potency": "inconclusive: 35.5 µM [inhibitor, single point]"},
      {"compound": "O=C(NCc1cccc(CNC(=O)Nc2ccccc2C(=O)NCCc2ccccc2)c1)Nc1ccccc1C(=O)NCCc1ccccc1", "Potency": "inconclusive: 15.8 µM [inhibitor, partial curve, poor fit]"},
      {"compound": "CCOc1ccccc1NC(=O)Cn1c(=O)n(Cc2ccccc2)c(=O)c2cccnc21", "Potency": "inconclusive: 0.708 µM [inhibitor, full curve, poor fit]"},
      {"compound": "COc1ccc(CC(=O)N2N=C(c3ccc(F)cc3)CC2(O)C(F)(F)F)cc1", "note": "(centres undefined)", "activity change, negative = inhibition": "inactive: -15.9%"},
      {"compound": "COc1ccccc1OCC(=O)Nc1cc(-c2ccc(F)c(F)c2)no1", "activity change, negative = inhibition": "inactive: 18.3%"},
      {"compound": "CCCCN(C)C(=O)c1cc(=O)[nH]c2ccccc12", "Potency": "inconclusive: 31.6 µM [inhibitor, partial curve, poor fit]"},
      {"compound": "O=C(Cn1c(-c2cccs2)cc2cc(Cl)ccc21)N1CCN(c2ccccc2F)CC1", "Potency": "inconclusive: 3.98 µM [inhibitor, full curve, poor fit]"},
      {"compound": "CCCn1c(C)cc(C(=O)COC(=O)c2nn(CCC)c(=O)c3ccccc23)c1C", "activity change, negative = inhibition": "inactive: -2.9%"},
      {"compound": "[O-][n+]1cn(O)cc1/C=N/O", "activity change, negative = inhibition": "inactive: -30.2%"},
      {"compound": "O=C1NCCCCCCN(Cc2ccncc2)[C@@H]2CN(C(=O)NCc3ccccc3)CC[C@@H]12", "Potency": "inconclusive: 28.2 µM [inhibitor, single point]"},
      {"compound": "CCN1CCN(c2oc(-c3ccccc3OC)nc2C#N)CC1", "Potency": "inconclusive: 31.6 µM [inhibitor, partial curve, poor fit]"},
      {"compound": "CSc1ccc(/C=C/C(=O)Nc2cc(Cl)ccc2C)cc1", "activity change, negative = inhibition": "inactive: -11.3%"},
      {"compound": "CN(C)C(=O)CNC(=O)Cn1c(=O)c2c(ncn2Cc2ccco2)n(Cc2ccccc2)c1=O", "activity change, negative = inhibition": "inactive: 4.36%"},
      {"compound": "COc1cccc(OC)c1C(=O)Nc1cccc2ncccc12", "Potency": "inconclusive: 25.1 µM [inhibitor, partial curve, poor fit]"},
      {"compound": "CCCc1cc(NCc2cccnc2)n2nc(C)c(-c3ccccc3)c2n1", "Potency": "inconclusive: 31.6 µM [inhibitor, partial curve, poor fit]"},
      {"compound": "Cc1ccc(-n2ncc(C(=O)NCCc3c[nH]c4ccccc34)c2C2CCN(C(=O)OC(C)(C)C)CC2)cc1C", "Potency": "inconclusive: 3.16 µM [inhibitor, partial curve, poor fit]"},
      {"compound": "Cc1ccccc1Cn1c2ccccc2c2cnn(CC(=O)NCCc3ccccc3)c(=O)c21", "activity change, negative = inhibition": "inconclusive: -33.4% [inhibitor]"},
      {"compound": "COCCOc1cccc(F)c1C(=O)/C=C/c1ccc(C#N)cc1", "Potency": "inconclusive: 39.8 µM [inhibitor, single point]"}
    ]}
  ]
}
